Reference: PubChem BioAssay AID463173 (ICCB-Longwood Screening Facility, Harvard Medical School, 2010)
Screen size: about 52,000 compounds; about 4,300 (8.3%) were called active. Rule as the data show it: active = survival mostly below about 52% (no sharp cut-off); inactive = mostly above about 56%. The list shows a part of the results.

system: DeltatarO mutant; experiment: growth inhibition of S. aureus wild type versus tarO mutant, primary screen, teichoic acid synthesis inhibitors, RN4220, OD600 (AID 463173); details: OD600, 18 h, active compounds read low, screened at 18.75 µg/mL (by protocol)

`CCOc1cccc2sc(N3CCN(C(=O)C4CC4)CC3)nc12` was tested. Which survival did it give?
The survival was inactive: 54%.

For `Cc1cc(C)cc(NC(=O)CCCn2c3ccccc3c(=O)c3ccccc32)c1`, which survival is on record?
Its survival is active: 42%.

How did the survival turn out when `c1nnnn1C12CC3CC(CC(C3)C1)C2` was run?
The survival was inactive: 119%.

With `CC(=O)c1ccc(N2CCN(C(=O)CCCCn3c(=O)[nH]c4ccccc4c3=O)CC2)cc1` as the compound, how does the survival read?
The survival was inactive: 107%.

How did the survival turn out when `NC(=O)C1(N2CCCCC2)CCN(C(=O)Nc2ccc(F)cc2)CC1` was run?
The survival was inactive: 98%.

With `CCc1ccccc1NC(=O)CN1C(=O)c2ccccc2Sc2ncccc21` as the compound, how does the survival read?
Its survival is inactive: 96%.

Which survival does the source give for `CC1CCn2c(nc3cc(C(=O)NCc4ccccc4)ccc32)C1` (stereo not given) here?
Its survival is inactive: 83%.

`Cc1ccc(C)c(N2CCN(C(=O)C3CCCN(Cc4nc(-c5cccc(Cl)c5)oc4C)C3)CC2)c1` (stereo not given) was tested. Which survival did it give?
The survival was inactive: 78%.

How did the survival turn out when `O=C(CNC(=O)c1ccccc1)OCc1cc(=O)n2ccsc2n1` was run?
Its survival is inactive: 77%.

For `CC(=O)c1ccc(NC(=O)c2cc(S(=O)(=O)N3CCCCCC3)cn2C)cc1`, which survival is on record?
Its survival is inactive: 78%.

Which survival does the source give for `CC1CCCC(C)N1S(=O)(=O)c1ccccc1` (stereo not given) here?
The survival was inactive: 79%.

With `Cc1ccc(NC(=O)CCCc2nnc3n(C)c(=O)c4sccc4n23)cc1F` as the compound, how does the survival read?
The survival was inactive: 72%.

With `COc1ccc(-c2nc3c(c(SCC(=O)Nc4ccccc4F)n2)Cc2cc(C)ccc2O3)cc1` as the compound, how does the survival read?
The survival was inactive: 98%.

Which survival does the source give for `COc1ccc(-c2nnc(SCC(=O)NC3CCCC3)nc2-c2ccc(OC)c(OC)c2)cc1OC` here?
Its survival is active: 47%.

Which survival does the source give for `CCOc1ccc(N2CC(c3nc4ccccc4n3Cc3ccccc3F)CC2=O)cc1` (stereo not given) here?
Its survival is inactive: 103%.

How did the survival turn out when `O=C(NCc1ccccc1)C1CCN(S(=O)(=O)c2ccc3c(c2)CCCN3C(=O)C2CCC2)CC1` was run?
Its survival is inactive: 78%.

`Cc1ccc(N2CC(NC(=O)c3ccc(S(=O)(=O)N4CCCC4)cc3)CC2=O)cc1C` (stereo not given) was tested. Which survival did it give?
The survival was inactive: 83%.

How did the survival turn out when `Nc1nc2ccccc2n1C(=O)c1ccccc1` was run?
Its survival is inactive: 83%.

With `CCn1cc(C(=O)NCCCN2CCCC(C)C2)c(=O)c2cc(S(=O)(=O)N(C)C3CCCCC3)ccc21` (stereo not given) as the compound, how does the survival read?
The survival was inactive: 97%.

How did the survival turn out when `Cc1cc(C)cc(-n2ccn(CC(=O)Nc3cc(C)ccc3C)c(=O)c2=O)c1` was run?
The survival was inactive: 60%.

For `COc1ccc(CCNc2nc(-c3ccc(OC)c(OC)c3)cc(C(F)(F)F)n2)cc1OC`, which survival is on record?
Its survival is active: 4%.

How did the survival turn out when `Cc1cccc(CS(=O)(=O)Cc2ccc(C(=O)NCCc3ccccc3)o2)c1` was run?
The survival was inactive: 89%.

`Cc1ccc(-c2cn(-c3cccc(Cl)c3)c(S(=O)(=O)CC(=O)Nc3cccc(C)c3)n2)cc1` was tested. Which survival did it give?
Its survival is inactive: 67%.

How did the survival turn out when `CCOC(=O)c1c(S(=O)(=O)N2CCCC(C(=O)NCc3cccc(OC)c3)C2)c(C)n(C)c1C` (stereo not given) was run?
Its survival is inactive: 117%.

With `COc1ccc(OC)c(NC(=O)c2cc(S(=O)(=O)NCCc3ccc(Cl)cc3)ccc2F)c1` as the compound, how does the survival read?
The survival was inactive: 70%.

How did the survival turn out when `CCC(C)NC(=O)Cn1c(=O)n(-c2ccc(C)c(C)c2)c(=O)c2c3c(sc21)CCCCC3` (stereo not given) was run?
The survival was inactive: 80%.

Which survival does the source give for `CCCCc1nn2c(=O)cc(COC(=O)C3CCCCC3)nc2s1` here?
Its survival is inactive: 75%.

With `Cc1nc2nc(SCC(=O)NC3CCC(C)CC3)nn2c(C)c1Cc1ccccc1` (stereo not given) as the compound, how does the survival read?
The survival was inactive: 92%.

Which survival does the source give for `CCOc1ccc(OCC)c(NC(=O)c2ccc(-c3ccccc3)s2)c1` here?
Its survival is active: 27%.

How did the survival turn out when `N#Cc1ccc(N2CCOCC2)cc1C#N` was run?
The survival was inactive: 78%.

With `CCOc1ccc(CCNC(=O)c2sc3ncccc3c2-n2cccc2)cc1OCC` as the compound, how does the survival read?
The survival was inactive: 63%.

`COC(=O)c1ccc(-c2nc3cc(NC(C)=O)ccc3o2)cc1` was tested. Which survival did it give?
The survival was inactive: 149%.

For `CCOc1ccc(NC(=O)c2ccc(F)c(S(=O)(=O)N(CC)Cc3ccccc3)c2)cc1`, which survival is on record?
Its survival is inactive: 78%.

Which survival does the source give for `O=C(CCC1N=C2c3ccccc3N=C(SCc3cccc(F)c3)N2C1=O)NCc1cccs1` (stereo not given) here?
The survival was inactive: 83%.

For `CCOC(=O)c1scc(-c2ccc(C)cc2)c1S(=O)(=O)N1CCN(c2ccccc2F)CC1`, which survival is on record?
Its survival is inactive: 109%.

With `Cc1ccc(Cl)cc1N1CCN(C(=O)CCNS(=O)(=O)c2ccc3c(c2)CCN3C(=O)C2CC2)CC1` as the compound, how does the survival read?
Its survival is inactive: 77%.

With `COCCNC(=O)c1cc2ccccc2o1` as the compound, how does the survival read?
Its survival is inactive: 104%.

With `CCCCCSc1ncnc2c1sc1nc(N3CCOCC3)c3c(c12)CCCC3` as the compound, how does the survival read?
The survival was inactive: 69%.

Which survival does the source give for `Cc1ccc(NC(=O)NCc2cccn2Cc2ccccc2)c(C)c1` here?
The survival was inactive: 76%.

How did the survival turn out when `C1=C(C(c2nnnn2C2CCCCC2)N2CCCCC2)COc2ccccc21` (stereo not given) was run?
Its survival is inactive: 86%.

`CC(C)c1ccc(S(=O)(=O)c2nnn3c2nc(N2CCCCC2)c2sccc23)cc1` was tested. Which survival did it give?
Its survival is inactive: 49%.

`COc1cccc(C(=O)Nc2ccc(-c3cc(C(F)(F)F)nn3-c3ccccc3)cc2)c1` was tested. Which survival did it give?
The survival was inactive: 46%.

How did the survival turn out when `COc1ccc(COC(=O)C2=C(C)NC3(O)c4ccccc4C(=O)C23O)cc1` (stereo not given) was run?
The survival was inactive: 90%.

Which survival does the source give for `Cc1ccc(C)c(Cn2c(-c3cccs3)nc3ccccc32)c1` here?
Its survival is active: -3%.

How did the survival turn out when `Cc1ccc(C)c(CN2C(=O)N(c3cc(Cl)ccc3C)S(=O)(=O)c3ccccc32)c1` was run?
Its survival is inactive: 83%.

Which survival does the source give for `CC(C)Cc1ccc(S(=O)(=O)Nc2cc3c(cc2N2CCOCC2)n(C)c(=O)c(=O)n3C)cc1` here?
The survival was inactive: 79%.

How did the survival turn out when `CC(=O)c1cccc(NC(=O)c2cc(-c3ccc(Cl)s3)nc3ccccc23)c1` was run?
The survival was inactive: 77%.

How did the survival turn out when `CCn1c(CNC(=O)c2ccccc2)n[nH]c1=S` was run?
The survival was inactive: 86%.

With `COc1ccc(NC(=O)CC2C(=O)N(c3cccc(C)c3)C(=O)N2C2CCCCC2)cc1` (stereo not given) as the compound, how does the survival read?
The survival was inactive: 69%.

For `COc1ccc(-c2nnc(SCC(=O)Nc3ccc(C(C)C)cc3)nc2-c2ccc(OC)c(OC)c2)cc1OC`, which survival is on record?
The survival was inactive: 86%.

How did the survival turn out when `CCNc1nc2n(c(=O)n1)CCN2CC` was run?
The survival was inactive: 86%.

For `Cc1cc(/C=C(\C#N)C(=O)NCc2cccs2)c(C)n1C1CCCC1`, which survival is on record?
Its survival is inactive: 117%.

For `NNC(=O)CCc1nc2ccccc2[nH]1`, which survival is on record?
The survival was inactive: 67%.

Which survival does the source give for `Cc1cccc(N2CCN(C(=O)c3cn(CC(C)C)c(=O)c4c3c3ccccc3n4C)CC2)c1C` here?
Its survival is inactive: 95%.

How did the survival turn out when `COc1ccc(-c2ccc(NS(=O)(=O)c3ccc(C(C)=O)cc3)cc2)nn1` was run?
The survival was inactive: 67%.

Which survival does the source give for `Cc1ccc(NS(=O)(=O)c2c(C)[nH]c(=O)[nH]c2=O)c(C)c1` here?
Its survival is inactive: 46%.

`CC1CC(C)CN(C(=O)Cn2c(SCC(=O)N(C(C)C)C(C)C)nc3ccccc32)C1` (stereo not given) was tested. Which survival did it give?
The survival was inactive: 97%.

Which survival does the source give for `COc1cccc(N2CC(NC(=O)CCCc3ccccc3)CC2=O)c1` (stereo not given) here?
The survival was inactive: 69%.

`Cc1ccc(-c2noc(CNC(=O)c3ccc(Br)o3)n2)cc1` was tested. Which survival did it give?
Its survival is inactive: 75%.

With `COc1cc(S(=O)(=O)N2CCN(C)CC2)c(C)cc1C` as the compound, how does the survival read?
Its survival is inactive: 78%.

Which survival does the source give for `CCC(C(=O)Nc1c(C)cc(C)cc1C)n1c(=O)c(-c2ccccc2NC(C)=O)nc2ccccc21` (stereo not given) here?
The survival was inactive: 88%.

Which survival does the source give for `CN(Cc1ccccc1)S(=O)(=O)c1cc(Br)cc2c1N(C(=O)C1CC1)CC2` here?
The survival was active: 34%.

How did the survival turn out when `COc1ccc(NC(=O)CSc2nnc(NC(=O)Nc3ccc(OC)cc3)s2)cc1` was run?
The survival was inactive: 87%.

With `Oc1cc2ccsc2c2ccccc12` as the compound, how does the survival read?
Its survival is active: 9%.

How did the survival turn out when `CCN(CCCNC(=O)CN1N=C(c2ccc(OC)cc2)CCC1=O)c1cccc(C)c1` was run?
The survival was inactive: 123%.

For `CCCCN(C)CCCNC(=O)c1cc(-c2ccc(Br)s2)nc2ccccc12`, which survival is on record?
Its survival is inactive: 33%.

How did the survival turn out when `COc1cccc(Nc2sc(C(=O)c3ccc(F)cc3)c(N)c2C(=O)NCc2ccc(Cl)cc2)c1` was run?
Its survival is active: 8%.

`Cc1cccc(NC(=O)CCCCCn2c(=O)[nH]c3ccsc3c2=O)c1` was tested. Which survival did it give?
Its survival is active: 33%.

For `CC(C)c1ccc(CN(Cc2ccco2)c2cnc(S(C)(=O)=O)nc2C(=O)Nc2ccc(F)cc2)cc1`, which survival is on record?
Its survival is inactive: 49%.

For `Cc1ccc(C(=O)Nc2cc3nn(-c4ccccc4)nc3cc2Cl)c(C)c1`, which survival is on record?
Its survival is inactive: 78%.

For `N#C/C(=C\c1ccc(Cl)cc1Cl)c1nc(-c2cccc(Cl)c2)cs1`, which survival is on record?
The survival was inactive: 79%.

Which survival does the source give for `CCOc1ccccc1N(CC(=O)NCCSc1ccccc1)S(=O)(=O)c1ccccc1` here?
Its survival is inactive: 55%.

For `COc1ccccc1Cc1nc2ccccc2nc1SCC(=O)N(C)c1ccc(F)cc1`, which survival is on record?
The survival was inactive: 83%.

`COc1ccccc1C(=O)Nc1ccncc1` was tested. Which survival did it give?
Its survival is inactive: 78%.

With `Cc1cccc(N2CCN(C(=O)Nc3cn(CC(C)C)c(=O)c4ccccc34)CC2)c1C` as the compound, how does the survival read?
The survival was inactive: 69%.

`Cc1nnc(N2CCC(C(=O)NCCc3ccccc3Cl)CC2)c2nn(-c3ccccc3)c(C)c12` was tested. Which survival did it give?
The survival was inactive: 123%.

For `CCOc1ccccc1CNC(=O)C1CCN(c2nn3cc(-c4ccc(F)cc4)nc3s2)CC1`, which survival is on record?
Its survival is inactive: 67%.

For `CCCCCCOc1ccc(C2C(=O)N(C3CCCCC3)CC(=O)N2CCC)cc1` (stereo not given), which survival is on record?
The survival was inactive: 94%.

For `Cc1cccc(N2CCN(C(=O)c3cccc(-n4c(C)nc5cccnc54)c3)CC2)c1C`, which survival is on record?
The survival was inactive: 104%.

`Cc1cc(C)c(C(=O)O)c(=O)[nH]1` was tested. Which survival did it give?
Its survival is inactive: 60%.

With `COc1ccc(Cn2c(=O)c3oc4ccccc4c3n(Cc3cccc(C(F)(F)F)c3)c2=O)cc1` as the compound, how does the survival read?
Its survival is inactive: 73%.

With `Cc1nn(-c2ccccc2)c2c1N(CC(=O)N1CCN(c3cccc(Cl)c3)CC1)C(=O)CS2` as the compound, how does the survival read?
The survival was inactive: 75%.

`O=C(c1ccc2c(=O)n(CCc3ccccc3)c(=O)[nH]c2c1)N1CCN(c2ccc(F)cc2)CC1` was tested. Which survival did it give?
Its survival is inactive: 111%.

With `COc1cccc(N2CC(NC(=O)c3ccco3)CC2=O)c1` (stereo not given) as the compound, how does the survival read?
The survival was active: 37%.

Which survival does the source give for `COc1ccc(N=C2SC(C(=O)Nc3ccccc3)CC(=O)N2C)cc1` (stereo not given) here?
Its survival is inactive: 91%.

How did the survival turn out when `CCc1nn(CC(=O)NCCCN(CC(C)C)CC(C)C)c(=O)c2cc3sc(C)cc3n12` was run?
The survival was inactive: 133%.

With `O=C(O)c1ccc(/C=N/n2cnnc2)cc1` as the compound, how does the survival read?
The survival was inactive: 111%.

For `CCOC(=O)/C(C#N)=C/c1ccc2c(c1)c1ccccc1n2CC`, which survival is on record?
The survival was inactive: 91%.

For `CCCCN(C)C(=O)C1CCCN(c2ncnc3onc(C)c23)C1` (stereo not given), which survival is on record?
The survival was inactive: 113%.

Which survival does the source give for `CCN(CC)c1cc2c(cc1F)c(=O)c(S(=O)(=O)c1ccc(OC)cc1)cn2CC` here?
Its survival is inactive: 102%.
